The list shows a part of the results. The main result of the screen is listed elsewhere. These columns were measured beside it and carry no call.
Experiment: cell-free HIV fusion peptide-binding blockers – biochemical, uHTS, fluorescence dequenching, primary screen (AID 1986)
Conditions: 30 min, measured here: repeat confirmation average inhibition, at 18.6 µM, stronger effect = higher value

Row | Compound | inhibition [%]
1 | O=[N+]([O-])c1cccc(S(=O)(=O)Nc2nc3ccccc3nc2Nc2cccc(S(=O)(=O)N3CCCCC3)c2)c1 | 68.4
2 | O=C(O)c1ccc(-c2ccc(/C=C3\NC(=O)N(Cc4ccc(Cl)cc4)C3=O)o2)cc1Cl | 63
3 | CC(/C=C1\SC(=S)N(C(C(=O)O)c2ccccc2)C1=O)=C\c1ccccc1 (configuration not stated) | 54.5
4 | COc1ccc(C(=O)COC(=O)c2ccccc2NS(=O)(=O)c2ccc(O)c([N+](=O)[O-])c2)cc1 | 61.7
5 | CCOC(=O)c1sc2nc3c(SCCC(=O)O)cc(C(=O)c4cc(OC)ccc4O)cn3c(=O)c2c1C | 64.5
6 | CCc1ccc(/C=C2\SC(=S)N(CCCC(=O)Nc3ccccc3C(=O)O)C2=O)cc1 | 74.8
7 | O=C1/C(=C\c2ccc(O)c(O)c2)C(c2ccccc2)=NN1c1ccccc1 | 59.6
8 | CC(C(=O)Nc1ccc(O)c(C(=O)O)c1)N1C(=O)/C(=C/c2cccs2)SC1=S (configuration not stated) | 64.7
9 | Cc1ccc(F)c(NC(=O)/C(C#N)=C(\O)c2ccc(C(C)(C)C)cc2)c1 | 53.9
10 | O=C(CN1C(=O)S/C(=C\C=C\c2ccccc2)C1=O)Nc1ccccc1C(=O)O | 55
11 | Cc1ccc(NC(=S)NNc2ccc([N+](=O)[O-])cc2S(=O)(=O)Nc2ccccc2C(=O)O)cc1C | 76.6
12 | O=C(O)CCn1cc(/C=C/C(=O)c2ccc(Cl)cc2)c(-c2cccc(Br)c2)n1 | 57.6
13 | Cc1ccc(-c2cc(C(=O)Nc3ccc(S(=O)(=O)Nc4onc(C)c4C)cc3)c3ccccc3n2)cc1 | 50.8
14 | COc1ccc(-c2csc(NC(=O)CSc3nc(C)nc4sc(C(=O)O)c(C)c34)n2)cc1 | 83.2
15 | O=C(O)c1cc(N/N=C/c2ccc(-c3ccccc3)cc2)ccc1Cl | 58.4
16 | N#Cc1c(-c2ccccc2)nc(SCc2cccc(Cl)c2)[nH]c1=O | 68.7
17 | CCOC(=O)c1sc(N2C(=O)C(O)=C(C(=O)c3ccco3)C2c2cccc([N+](=O)[O-])c2)nc1C (configuration not stated) | 59
18 | COc1ccccc1N1N=C(C(=O)c2ccccc2)C2C(=O)N(c3ccc(Br)cc3)C(=O)C21 (configuration not stated) | 63.2
19 | O=C(O)C(c1ccccc1)N1C(=O)/C(=C\c2ccc(O)c(O)c2)SC1=S (configuration not stated) | 79.4
20 | COc1ccc(-c2csc(NC(=O)c3ccccc3NS(=O)(=O)c3ccc(C)cc3)n2)cc1 | 67.6
21 | O=C1NN(c2ccc(Cl)cc2)C(=O)/C1=C\c1ccc(-c2cccc(C(=O)O)c2)o1 | 67.6

Row | Compound | inhibition [%]
22 | O=c1cc(-c2ccccc2Cl)oc2c(NS(=O)(=O)c3cc(Cl)cc(Cl)c3O)ccc(O)c12 | 80.1
23 | CCOc1ccc2nc(NC(=O)CSc3nc(-c4ccccc4)c(C#N)c(=O)[nH]3)sc2c1 | 69.1
24 | Cc1oc2c(cc(NS(=O)(=O)c3ccc(C(C)C)cc3)c3ccccc32)c1C(=O)O | 55
25 | O=C(O)c1ccc(/C=N/NC(=O)c2ccc(CN3c4cccc5cccc(c45)S3(=O)=O)cc2)cc1 | 52.8
26 | CCS(=O)(=O)C1=NSC2=NC(=O)/C(=C\c3ccc(OS(=O)(=O)c4ccccc4)cc3)C(=N)N21 | 62.3
27 | CCOc1ccc(C2C(C(=O)Nc3ccccc3)=C(C)N=c3s/c(=C/c4cccc(OCC(=O)O)c4)c(=O)n32)cc1 (configuration not stated) | 51.3
28 | CCCCCNC(=O)c1ccc2c(=O)[nH]c3c(C(=O)NCC4CCCO4)sc(=S)n3c2c1 (configuration not stated) | 52
29 | COc1cc(/C=C2\SC(=O)N(Cc3ccc(F)cc3)C2=O)cc([N+](=O)[O-])c1O | 68.5
30 | COc1cc(/C=C2\SC(=O)N(c3ccccc3Cl)C2=O)cc([N+](=O)[O-])c1O | 59.4
31 | O=C(O)CN1C(=O)/C(=C\c2cc(Br)ccc2OCc2ccccc2F)SC1=S | 83.3
32 | CN(C)S(=O)(=O)c1cccc(-c2nn(-c3ccccc3)cc2/C=C2\SC(=S)NC2=O)c1 | 74.1
33 | O=C1/C(=C2\C(=O)N(Cc3ccc(F)cc3)c3ccccc32)SC(=S)N1CCS(=O)(=O)O | 69.8
34 | O=C1NN(c2ccc(Cl)c(Cl)c2)C(=O)/C1=C/c1ccc(-c2ccccc2C(=O)O)o1 | 57.2
35 | O=C(O)c1cccc(NC(=S)N/N=C/c2ccccc2OCc2cccc(Br)c2)c1 | 75.9
36 | COc1cc(/C=C2\S/C(=N/S(=O)(=O)c3ccc(C)cc3)NC2=O)c([N+](=O)[O-])cc1OC | 68.9
37 | C=CCOc1ccc(C(c2c(C(=O)O)[nH]c3ccccc23)c2c(C(=O)O)[nH]c3ccccc23)cc1 | 81.1
38 | Cc1c(CCC(=O)O)c(=O)oc2c(C)c3occ(-c4ccc(Br)cc4)c3cc12 | 76
39 | O=[N+]([O-])c1cc([N+](=O)[O-])c2oc(-c3ccccc3)c(Br)c2c1O | 88.2
40 | O=C(O)c1cccc(N/N=C/c2cc(Br)cc(Br)c2O)c1 | 69.3
41 | N#Cc1c(SCC(=O)Nc2nc3ccc(Br)cc3s2)sc2c(O)cc(=O)[nH]c12 | 68.3
42 | O=C(O)C[C@@H]1C(=O)O[C@@H]2C(COC(=O)c3cc(O)c(O)c(O)c3)O[C@@H](OC(=O)c3cc(O)c(O)c(O)c3)[C@@H](OC(=O)c3cc(O)c(O)c4c3[C@H]1[C@H](O)C(=O)O4)[C@H]2OC(=O)c1cc(O)c(O)c(O)c1 (some centres not stated) | 72.6

Reference: PubChem BioAssay AID1986 (Sanford-Burnham Center for Chemical Genomics, 2009)
